According to PubChem BioAssay AID1963576 (National Center for Advancing Translational Sciences (NCATS), 2024):
Screen size: about 46,000 compounds; about 60 (0.1%) were called active. About 3% were inconclusive and are not listed. Calls come from the whole dose curve; as a rule, active = well fitted inhibition curve with a large enough effect; inconclusive = small, poorly fitted or top-dose-only effect; inactive = no such curve, though single readings can be large or run the other way. The list shows a part of the results.

Assay: Primary qHTS assay for Inhibitors of ovarian cancer metastasis using an organotypic tumor microenvironment (TME) model.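 For activity change, negative = inhibition: plate controls were DMSO wells for no effect and tomatine positive control wells for full effect.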 Note: nearly all actives have a fitted effect of over 65% in size.
Details: SKOV3ip1-GFP adhesion/invasion on 3D omental model, fluorescence; series mostly up to 45.8 µM; activity change, negative = inhibition: at the top concentration
In short: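 qHTS, 4-pt dose (0.36-46 umol/L); SKOV3ip1-GFP, 1,200 cells/well, no FBS; primary omental fibroblast/mesothelial co-culture 48 h pre-grown; 2 h RT + 16 h 37 C; PBS wash, 4% PFA; GFP count 488/509 nm.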

outcome, inactive:
O=C(NCC1(c2ccccc2)CCCC1)C(=O)Nc1cccc(Br)c1, CCc1nn(C(C)C(=O)N2CCN(c3ccccc3)CC2)c(=O)c2cc3occc3n12 (stereo not drawn), Cc1nn2c(=O)cc(COC(=O)c3cccs3)nc2s1, CSc1ccc(CCNC(=O)c2ccc3c(Cl)c4c(nc3c2)CCCC4)cc1, Cc1ccc(Cl)cc1NC(=O)C1CCCN(c2cnccn2)C1 (stereo not drawn), Oc1ccc(NCc2ccccc2OCc2ccc(Cl)cc2)cc1, CC(C)(C)C1CCc2nc(NC(=O)Cc3ccccc3)sc2C1 (stereo not drawn), COc1ccccc1N1C(=O)N(CC(=O)C(C)(C)C)c2ccccc2S1(=O)=O, Cc1ccccc1-c1noc(-c2ccc(NCc3ccco3)c([N+](=O)[O-])c2)n1, CCN(CC)C(=O)C1CCN(S(=O)(=O)c2c(C)noc2/C=C/c2cccc(OC)c2)CC1, CCC(C)NC(=O)CCCc1nnc2n(CC(C)C)c(=O)c3sccc3n12 (stereo not drawn), Cc1ccc(S(=O)(=O)C(CNC(=O)C(=O)NCCc2ccccc2)c2cccs2)cc1 (stereo not drawn), Cc1ccc(NC(=O)CC2Nc3ccccc3NC2=O)cc1C (stereo not drawn), O=C(CN1C(=O)CSc2ccc(S(=O)(=O)N3CCCC3)cc21)Nc1cccc(Cl)c1, COCCCNC(=O)c1ccc(Cn2c(=O)c3ccccc3n(Cc3c(C)cc(C)cc3C)c2=O)cc1, COc1ccc(-c2nc3n(n2)C(c2ccc(OC)c(OC)c2)C(C(=O)Nc2cccnc2)=C(C)N3)cc1 (stereo not drawn), CCc1ccc(C2C(C(=O)Nc3ccccc3C)=C(C)Nc3nc(SCc4cccc(OC)c4)nn32)cc1 (stereo not drawn), CCOC(=O)CC(NC(=O)Cn1nnc(-c2ccccc2F)n1)c1ccccc1Cl (stereo not drawn), CC(C)(Oc1ccc(Br)cc1)C(=O)Nc1cc(-c2nc3ccccc3[nH]2)ccc1Cl, COc1ccccc1CNC(=O)CN1N=C(c2ccccc2)CCC1=O, CCOc1ccc(NC(=O)c2oc3ccccc3c2NC(=O)c2ccc(OC)cc2OC)cc1, Fc1ccccc1N1CCN(c2nccn3nc(-c4ccc(Br)cc4)cc23)CC1

Activity change, negative = inhibition, inactive:
Cc1ccccc1CCNC(=O)C1CCN(S(=O)(=O)c2ccc3c(ccn3C)c2)CC1 8.88%, Cc1cccc(C)c1NC(=O)Cn1nnc(C(=O)NCc2ccc(F)cc2)c1N 5.41%, CCCN(CCC)C(=O)C(Cc1ccccc1)NS(=O)(=O)c1ccc2c(c1)c(=O)n(C)c(=O)n2C (stereo not drawn) 0.922%, Cc1oc2c(C)c3oc(=O)c(CC(=O)N4CCCCC4)c(C)c3cc2c1C -7.36%, COc1cc(Nc2ncc3c(n2)CCN(Cc2cccc(C)c2)C3)cc(OC)c1 -6.49%, Cn1c(=O)c2c(nc(Oc3ccccc3Cl)n2Cc2ccc(C#N)cc2)n(C)c1=O -4.31%, Cn1nnnc1SCCCNCc1cccc(OCc2ccc(F)cc2)c1 -15.9%, Cc1cccc(N2CCN(C(=O)C3CCN(c4ncnc5c4nc4n5CCCCC4)CC3)CC2C)c1 (stereo not drawn) -18%, COc1ccc(S(=O)(=O)c2c(O)c3ccc(C(=O)Nc4ccccc4)cc3[nH]c2=O)cc1 -0.082%, CCc1ccccc1NC(=O)Cn1nc(C(F)(F)F)c2c1CCC2 -4.13%, Cc1cc(C)c2c(CC(=O)Nc3ccccc3C(F)(F)F)coc2c1 -12%, CCCSc1ncc(Cl)c(C(=O)Nc2nc3ccc(C)cc3s2)n1 -2.88%, O=C(CCn1c(=O)c2ccccc2n(Cc2cccc(Cl)c2)c1=O)NCCc1ccccc1 -0.919%, CCOC(=O)c1ccccc1NC(=O)Cn1c(=O)n(Cc2nc(C)no2)c(=O)c2ccccc21 -3.35%, CN(c1ccccc1C(=O)O)S(=O)(=O)c1ccc2[nH]c(=O)oc2c1 10.8%, CN(C)c1ccc(C(CNS(=O)(=O)c2ccc(Cl)cc2)N2CCOCC2)cc1 (stereo not drawn) 4.18%, O=C(NCc1ccccc1)C(=O)NCC(c1ccco1)S(=O)(=O)c1cccs1 (stereo not drawn) -0.494%, Cc1cccc(NC(=O)C2CCN(c3nnc(C)c4c(C)n(-c5ccccc5)nc34)CC2)c1C 2.5%, CCc1nn(CC(=O)Nc2cccc(C(C)=O)c2)c(=O)c2cc3sccc3n12 -2.12%, CCOC(=O)c1c(NC(=O)C2c3ccccc3Oc3ccccc32)sc(C)c1CC 0.74%, COc1cc(Nc2nc3c(S(=O)(=O)c4ccc(C)c(C)c4)nnn3c3ccsc23)cc(OC)c1 -1.39%, Cc1ccc(OCC(=O)Nc2nnc(S(=O)(=O)N3CCCCCC3)s2)cc1 10.6%, O=C(NCc1ccc(F)cc1)C1(c2cccs2)CCOCC1 0.326%, COC(=O)c1ccccc1NC(=O)N1CCC(N2CCN(Cc3ccc(F)cc3)C(=O)C2=O)CC1 3.95%, CCn1c(=O)cc(OCC(=O)N(C)c2cc(Cl)ccc2C)c2ccccc21 6.77%, O=C1CN(C(=O)COc2ccc(Cl)cc2Cl)C(c2ccccc2)c2cc(F)ccc2N1 (stereo not drawn) -29.3%, CN(C)CCNC(=O)c1ccc(-c2nn(C)c(=O)c3ccccc23)cc1 16.4%, CSc1ccc(-c2nc3cccc(C)n3c2Nc2ccc(Cl)cc2)cc1 4.08%, Cc1ccc(Cn2cnc3nc4c(cc3c2=O)CC(C)CC4)cc1 (stereo not drawn) 9.11%, COc1cccc(C(=O)Nc2nnc(S(=O)(=O)N3CCCC3)s2)c1 12%, CC(C)c1ccc(S(=O)(=O)c2cnc(SCC(=O)Nc3ccc4c(c3)OCCO4)[nH]c2=O)cc1 2.4%, Cc1cccc(C(=O)NNc2ncnc3c2cnn3-c2ccc(C)cc2C)c1 -2.3%, O=C(O)c1ccc(NC(=O)c2cc(S(=O)(=O)N3CCCCC3)c(Cl)cc2Cl)cc1 -10.1%, CCOc1ccccc1CNC(=O)CCCn1ccc2cc(S(=O)(=O)N3CCCC3)ccc21 3.33%, Nc1cccc2c1C(=O)N(C1CCC(=O)NC1=O)C2=O (stereo not drawn) -7.83%, CCOc1ccc(CCNC(=O)c2nn(C)c3c2CSc2ccccc2-3)cc1 4.16%, Cc1ccc(Nc2c(C(C)C)c(C)c(C#N)c3nc4ccccc4n23)cc1 -18%, CCCNC(=O)CN1C(=O)CSc2ccc(S(=O)(=O)N3CCC(C)CC3)cc21 -6.97%, COc1ccc2c(c1)CCc1c(C(=O)Nc3c(C)nn(Cc4ccccc4)c3C)noc1-2 -8.88%, CCOc1ccc(NC(=O)c2cc(S(=O)(=O)NC3CCCCCC3)ccc2F)cc1 -6.6%, COCCCNC(=O)c1nn(-c2ccc(C)cc2)nc1CO -4.2%, O=c1oc2ccccc2c(N2CCN(c3ccccc3F)CC2)c1CN1CCCC1 3.17%, CCOc1ccc(C2CC(=O)c3c([nH]c(C(=O)OCC4CCCCC4)c3C)C2)cc1 (stereo not drawn) -10.8%, CCOc1ccc(-n2c(=O)c3c(C)c(C)sc3n(CC(=O)NCCc3ccccc3)c2=O)cc1 0.111%, Cc1ccc(NC(=O)/C=C\C(=O)N(c2ccc(C(C)C)cc2)C(C(=O)NCc2ccco2)c2ccc(F)cc2)cc1 (stereo not drawn) 6.25%, CCOc1ccccc1NC(=O)CSc1nccn1-c1cccc(C)c1 -1.55%, COc1ccc2c(Sc3ccc(C)cc3)c(C(=O)NC(C)C)[nH]c2c1 -11.4%, CCCc1cc(=O)oc2cc(C)c3c(-c4ccccc4)coc3c12 14.5%, COc1cccc(NC(=O)C(Cc2ccccc2)NS(=O)(=O)c2ccc3c(c2)c(=O)n(C)c(=O)n3C)c1 (stereo not drawn) 33.9%, Cc1cccc(CNC(=O)Cn2ccc3cc(S(=O)(=O)N4CCCCCC4)ccc32)c1 -8.57%, COc1ccc(Cl)cc1NC(=O)c1c(NCc2cccnc2)sc2c1CCC(C)C2 (stereo not drawn) -15.8%, CC1CCCCN1CCCNC(=O)CN1C(=O)c2cccnc2Oc2ccccc21 (stereo not drawn) -8.7%, COc1ccccc1NC(=O)C1=C(C)Nc2c(C(=O)Nc3cccc(C)c3)cnn2C1c1ccccc1Cl (stereo not drawn) -5.57%, Cc1ccc(Cl)cc1NC(=O)CCCn1c(=O)c2cccn2c2cccnc21 -1.15%, COc1cc(NC(=O)CCn2nc(C)c(S(=O)(=O)N3CCCCC3)c2C)cc(OC)c1OC 10.5%, COc1ccc(CCNC(=O)c2ccc(Cn3c(=O)c4ccccc4n(CC(=O)C(C)(C)C)c3=O)cc2)cc1OC 40.1%, Cc1ccccc1C(=O)N(Cc1sccc1C)C1CCS(=O)(=O)C1 (stereo not drawn) 3.95%, CCCCN(CC)C(=O)C1CCCN(c2ncnc3onc(C)c23)C1 (stereo not drawn) 14.7%, CCN1CCN(C(c2ccc(SC)cc2)c2c(O)cc(C)n(CCOC)c2=O)CC1 (stereo not drawn) 13.7%, C[C@@]12C[C@@]3(O)O[C@@H](O1)[C@]1(COC(=O)c4ccccc4)[C@@H]3C[C@@]12O[C@@H]1O[C@H](CO)[C@@H](O)[C@H](O)[C@@H]1O 14.6%, COc1cc(C(=O)NCC(c2ccc(Cl)cc2)N2CCOCC2)cc(OC)c1OC (stereo not drawn) -3.07%, CCOC(=O)c1ccc(CN(Cc2ccc(Br)cc2)S(=O)(=O)c2cccc(Cl)c2C)cc1 -17.6%, O=c1cc(-c2ccc(F)cc2)nc(SCc2nc(-c3ccc(Cl)cc3)no2)[nH]1 25.4%, CCOC(=O)c1c(C)[nH]c(C)c1S(=O)(=O)NCC(=O)NCc1cccc(C)c1 1.97%, O=C(Cn1c(=O)nc(-c2ccccc2)c2ccccc21)NCc1ccccc1Cl 2.1%, CCS(=O)(=O)c1ncc(N(Cc2ccco2)Cc2ccccc2F)c(C(=O)Nc2cccc(Cl)c2)n1 0.643%, Cc1ccc(N2CCN(C(=O)c3cn(C)c4ccc(S(=O)(=O)N(C)C)cc4c3=O)CC2C)cc1 (stereo not drawn) -3.03%, CO[C@H]1C[C@@H]2CC[C@@H](C)[C@@](O)(O2)C(=O)C(=O)N2CCCC[C@@H]2C(=O)O[C@H]([C@H](C)C[C@@H]2CC[C@H](OCCO)[C@H](OC)C2)CC(=O)[C@H](C)C=C(C)[C@@H](O)[C@@H](OC)C(=O)[C@H](C)C[C@H](C)C=CC=CC=C1C 10.9%, O=C(CN1N=C(c2ccc(Cl)cc2)CCC1=O)NCCc1ccccc1 3.8%, CCc1c(C)nc2nncn2c1NCc1ccc(Cl)cc1 18.6%, Cc1ccc(NC(=O)Cn2nc(Cc3ccncc3)c3ccccc3c2=O)c(Cl)c1 8.26%
